The record followed here is a collection of fitness landscapes (doi:10.1016/j.celrep.2020.107928).

In all, about 81,000 sequences were measured (“one-hybrid fitness for binding parS DNA”: median about -0.17, highest 2% from about 0.51 on). This is one part of the list. Some results are limits rather than exact numbers.

To fix the notation:
B1: Caulobacter ParB omega fusion; a variant is named by its letters at X, in order, B8GW30 (parent)
chain: MESVVVGEPGMSEGRRGLGRGLSALLGEVDAAPAQAPGEQLGGSREAPIEILQRNPDQPRRTFREEDLEDLSNSIREKGVLQPILVRPSPDTAGEYQIVAGERAWRAAQRAGLKTVPIMVRELDDLAVLEIGIIENVQRADLNVLEEALSYKVLMEKFERTQENIAQTIGKSXSHVANXMRLLXLPDEVQSYLVSGELTAXHARAIAAAADPVALAKQIIEGGLSVRETEALARKAPNLSAGKSKGGRPPRVKDTDTQALESDLSSVLGLDVSIDHRGSTGTLTITYATLEQLDDLCNRLTRGI

The experiment covers variants of B1. Briefly: one-hybrid fitness for binding parS DNA (scaled: cognate 1, non-cognate 0); higher = stronger binding. To be noted: with parS DNA site. The procedure, abridged: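 Fitness here means the log change in variant-to-wild-type read ratio between plasmids sequenced before and after selection. That scale was set so cognate equals 1 and non-cognate equals 0. The selection was a bacterial one-hybrid screen of Caulobacter ParB libraries, four specificity codons randomised, in E. coli USO carrying a HIS3 reporter with the site 19 bp from the promoter, grown 48 hours at 37°C on M9-minus-histidine with 0.1 mM IPTG and 5 mM 3-AT.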
For LTIV, the “one-hybrid fitness for binding parS DNA” value is not above 0.2. In the case of PRMV it was not above 0.2. The value for MRTE was not above 0.2; that for PAPG was not above 0.2.

Take RHHT: the “one-hybrid fitness for binding parS DNA” value was determined as 0.869. Consider GESR, for which the “one-hybrid fitness for binding parS DNA” value was not above 0.2. The value for GHPR was not above 0.2; that for TFDE was not above 0.2; that for KNCL was not above 0.2. In the case of SRWS it was not above 0.2; in that of PANQ, not above 0.2; in that of HMHS, not above 0.2.

Take QTYI: the “one-hybrid fitness for binding parS DNA” value is not above 0.2. As for TVQS, the “one-hybrid fitness for binding parS DNA” value is not above 0.2. Consider VTEI, for which the “one-hybrid fitness for binding parS DNA” value was not above 0.2. The value for DTIS was not above 0.2.

For PYFS, the “one-hybrid fitness for binding parS DNA” value was not above 0.2. Regarding SNIV, the “one-hybrid fitness for binding parS DNA” value is not above 0.2. As for TVFS, the “one-hybrid fitness for binding parS DNA” value was not above 0.2. Take YSCS: the “one-hybrid fitness for binding parS DNA” value is not above 0.2. The value for GCEC was not above 0.2; that for GWNT was not above 0.2; that for RENG was 0.302. Consider WAMW, for which the “one-hybrid fitness for binding parS DNA” value is not above 0.2. Take WGQR: the “one-hybrid fitness for binding parS DNA” value is not above 0.2. In the case of TFMR it was not above 0.2. As for RIQG, the “one-hybrid fitness for binding parS DNA” value amounted to 0.999. Regarding PKQP, the “one-hybrid fitness for binding parS DNA” value was not above 0.2. For the variant QWWW, the “one-hybrid fitness for binding parS DNA” value is not above 0.2. For the variant LECR, the “one-hybrid fitness for binding parS DNA” value was not above 0.2. Take FSCG: the “one-hybrid fitness for binding parS DNA” value is not above 0.2. In the case of PQAT, the “one-hybrid fitness for binding parS DNA” value is not above 0.2.

For the variant QRMP, the “one-hybrid fitness for binding parS DNA” value was not above 0.2. In the case of RSMF it was 0.223; in that of KRGT, not above 0.2. In the case of GRFT it was not above 0.2; in that of YVSY, not above 0.2. In the case of VRTC it was not above 0.2; in that of SSNG, not above 0.2. As to TVQF, the “one-hybrid fitness for binding parS DNA” value is not above 0.2. In the case of PKRM it was not above 0.2.

As for CSSR, the “one-hybrid fitness for binding parS DNA” value is not above 0.2. In the case of RVLC, the “one-hybrid fitness for binding parS DNA” value came out at 0.958.

On to IHTV, for which the “one-hybrid fitness for binding parS DNA” value was not above 0.2. The value for SPCA was not above 0.2; that for RLVF was 0.261.

CTRY: the “one-hybrid fitness for binding parS DNA” value is not above 0.2.

QGQI: the “one-hybrid fitness for binding parS DNA” value was not above 0.2. For the variant QLVQ, the “one-hybrid fitness for binding parS DNA” value was not above 0.2. In the case of CLSY it was not above 0.2; in that of NAAH, not above 0.2; in that of RSAC, 0.932. In the case of SRHG it was not above 0.2. As for PYRE, the “one-hybrid fitness for binding parS DNA” value was not above 0.2.

In the case of ISSF, the “one-hybrid fitness for binding parS DNA” value is not above 0.2.

Turning to APCY, the “one-hybrid fitness for binding parS DNA” value was not above 0.2.

Consider LPMV, for which the “one-hybrid fitness for binding parS DNA” value was not above 0.2. In the case of QYRS it was not above 0.2; in that of FNPT, not above 0.2; in that of ERIS, not above 0.2. In the case of CSWS it was not above 0.2; in that of KEMV, not above 0.2; in that of GNNG, not above 0.2. In the case of MHIS it was not above 0.2; in that of RMIW, 0.226. On to GGTT, for which the “one-hybrid fitness for binding parS DNA” value is not above 0.2. The value for GAYK was not above 0.2; that for PFGS was not above 0.2. The value for SSHR was not above 0.2. In the case of NELP, the “one-hybrid fitness for binding parS DNA” value was not above 0.2. The value for WNQR was not above 0.2. Regarding KEDS, the “one-hybrid fitness for binding parS DNA” value was not above 0.2. In the case of QNHR, the “one-hybrid fitness for binding parS DNA” value is not above 0.2. RVIH: the “one-hybrid fitness for binding parS DNA” value is not above 0.2. In the case of YSEE, the “one-hybrid fitness for binding parS DNA” value is not above 0.2.

As to RNFN, the “one-hybrid fitness for binding parS DNA” value came out at 0.256.

CGPR: the “one-hybrid fitness for binding parS DNA” value is not above 0.2.

Turning to VTTI, the “one-hybrid fitness for binding parS DNA” value was not above 0.2. The value for SVPC was not above 0.2; that for MWQL was not above 0.2. In the case of EKLF it was not above 0.2; in that of IFLS, not above 0.2; in that of QDLG, not above 0.2. In the case of PAMM it was not above 0.2; in that of SFSE, not above 0.2; in that of RVYL, not above 0.2. In the case of PDAG, the “one-hybrid fitness for binding parS DNA” value is not above 0.2. In the case of CAQC it was not above 0.2; in that of LVLW, not above 0.2. In the case of WGTP it was not above 0.2; in that of DHST, not above 0.2. Take LMFV: the “one-hybrid fitness for binding parS DNA” value was not above 0.2. As to HNVG, the “one-hybrid fitness for binding parS DNA” value is not above 0.2. The value for FLVE was not above 0.2. The value for IKDR was not above 0.2; that for NSCC was not above 0.2; that for RRQH was not above 0.2.

Turning to ELKN, the “one-hybrid fitness for binding parS DNA” value was not above 0.2. The value for DVPW was not above 0.2. For the variant RTYI, the “one-hybrid fitness for binding parS DNA” value is not above 0.2.

As for LIML, the “one-hybrid fitness for binding parS DNA” value was not above 0.2.

Take RDWL: the “one-hybrid fitness for binding parS DNA” value is not above 0.2. As for LMML, the “one-hybrid fitness for binding parS DNA” value was not above 0.2. In the case of VNDI it was not above 0.2; in that of DGHR, not above 0.2; in that of GNSG, not above 0.2. In the case of SVQV it was not above 0.2; in that of TPRA, not above 0.2.

In the case of RQID, the “one-hybrid fitness for binding parS DNA” value is not above 0.2. Turning to PNKS, the “one-hybrid fitness for binding parS DNA” value was not above 0.2. Regarding TYEP, the “one-hybrid fitness for binding parS DNA” value is not above 0.2. ACKP: the “one-hybrid fitness for binding parS DNA” value is not above 0.2. Regarding SGTS, the “one-hybrid fitness for binding parS DNA” value is not above 0.2. Turning to LSVK, the “one-hybrid fitness for binding parS DNA” value was not above 0.2. With EMAV, the “one-hybrid fitness for binding parS DNA” value is not above 0.2.

For the variant RNNV, the “one-hybrid fitness for binding parS DNA” value is not above 0.2.

As to RCQD, the “one-hybrid fitness for binding parS DNA” value was not above 0.2. In the case of KWQS, the “one-hybrid fitness for binding parS DNA” value was not above 0.2. In the case of NVPN, the “one-hybrid fitness for binding parS DNA” value is not above 0.2. On to CRSA, for which the “one-hybrid fitness for binding parS DNA” value is not above 0.2. In the case of DHTR it was not above 0.2; in that of VFKY, not above 0.2; in that of KYRD, not above 0.2. In the case of PHEG it was not above 0.2. ANIG: the “one-hybrid fitness for binding parS DNA” value was not above 0.2. The value for AYDS was not above 0.2; that for PTHP was not above 0.2. In the case of AWLM it was not above 0.2; in that of WEHS, not above 0.2; in that of LEQG, not above 0.2.

As to KRFS, the “one-hybrid fitness for binding parS DNA” value is not above 0.2. The value for SYAE was not above 0.2; that for ILHV was not above 0.2. Take PHGV: the “one-hybrid fitness for binding parS DNA” value is not above 0.2. The value for PQCY was not above 0.2; that for HLLE was not above 0.2.

In the case of KARV, the “one-hybrid fitness for binding parS DNA” value is not above 0.2. In the case of LPNF it was not above 0.2; in that of KVQL, not above 0.2; in that of FTHR, not above 0.2. Take QHLS: the “one-hybrid fitness for binding parS DNA” value was not above 0.2. On to ITCY, for which the “one-hybrid fitness for binding parS DNA” value is not above 0.2. On to LTHM, for which the “one-hybrid fitness for binding parS DNA” value is not above 0.2. GMGV: the “one-hybrid fitness for binding parS DNA” value was not above 0.2. In the case of LMGE it was not above 0.2; in that of AENS, not above 0.2.

In the case of LTHA, the “one-hybrid fitness for binding parS DNA” value is not above 0.2. Take RLWA: the “one-hybrid fitness for binding parS DNA” value came out at 0.648.

In the case of QVVS, the “one-hybrid fitness for binding parS DNA” value is not above 0.2. For the variant ARPI, the “one-hybrid fitness for binding parS DNA” value is not above 0.2. In the case of KMSR it was not above 0.2.

In the case of MCHL, the “one-hybrid fitness for binding parS DNA” value was not above 0.2.

With ANFR, the “one-hybrid fitness for binding parS DNA” value was not above 0.2. The value for ESSE was not above 0.2; that for SHGT was not above 0.2. The value for REMH was not above 0.2; that for KNLR was not above 0.2. For VEDV, the “one-hybrid fitness for binding parS DNA” value was not above 0.2.

For AVPF, the “one-hybrid fitness for binding parS DNA” value was not above 0.2.

QCWT: the “one-hybrid fitness for binding parS DNA” value is not above 0.2. In the case of QCHA it was not above 0.2. In the case of SFWQ it was not above 0.2; in that of IYMS, not above 0.2.

In the case of GGDR, the “one-hybrid fitness for binding parS DNA” value is not above 0.2. The value for AYIG was not above 0.2. The value for TQIY was not above 0.2; that for LLPS was not above 0.2. Take HMVF: the “one-hybrid fitness for binding parS DNA” value was not above 0.2. In the case of IVAC it was not above 0.2; in that of HLKI, not above 0.2; in that of VILR, not above 0.2. The value for QLWG was not above 0.2; that for TRFQ was not above 0.2. On to VGTM, for which the “one-hybrid fitness for binding parS DNA” value was not above 0.2.

As to TAKV, the “one-hybrid fitness for binding parS DNA” value was not above 0.2. In the case of PRAW it was not above 0.2; in that of RKGW, not above 0.2; in that of HLKR, not above 0.2.

Turning to SKVT, the “one-hybrid fitness for binding parS DNA” value is not above 0.2. Consider NGAR, for which the “one-hybrid fitness for binding parS DNA” value is not above 0.2. The value for LWEG was not above 0.2; that for APKV was not above 0.2; that for VQWG was not above 0.2. The value for QAHL was not above 0.2; that for KMMC was not above 0.2; that for GHCT was not above 0.2.

Regarding FWRM, the “one-hybrid fitness for binding parS DNA” value is not above 0.2.

As to VDQE, the “one-hybrid fitness for binding parS DNA” value is not above 0.2.

On to SFSG, for which the “one-hybrid fitness for binding parS DNA” value was not above 0.2. The value for KFAV was not above 0.2. In the case of HFRV it was not above 0.2; in that of GLIR, not above 0.2; in that of RHPQ, not above 0.2. On to YEEA, for which the “one-hybrid fitness for binding parS DNA” value was not above 0.2. For the variant GMHC, the “one-hybrid fitness for binding parS DNA” value is not above 0.2.
